Measured values taken from paper PMC12820563.
The other results are listed elsewhere or left out. The list includes weakly bound sequences.

What follows are sequences tested against T1, MBP-FoxP3dN (UniProt Q99JB6) (assay: PD-seq (MBP pull-down with sequencing)). Details: 20 mM Tris-HCl pH 7.5, 100 mM NaCl, 1.5 mM MgCl2, 0.4 uM protein, 0.1 uM dsDNA library, 30 min, room temperature, amylose pull-down; high values mean tight binding; double strand, one strand shown.
T1 sequence: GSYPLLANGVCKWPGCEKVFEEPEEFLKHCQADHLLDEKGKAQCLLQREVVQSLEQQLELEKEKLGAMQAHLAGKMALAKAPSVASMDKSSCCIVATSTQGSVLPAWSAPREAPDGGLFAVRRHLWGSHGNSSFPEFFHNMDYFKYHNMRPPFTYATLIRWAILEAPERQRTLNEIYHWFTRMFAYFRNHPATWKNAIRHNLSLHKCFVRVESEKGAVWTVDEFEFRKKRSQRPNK
Work on “GATGATTGTTCTCCCAGCTGATGAATTCGAAACGTCGAGTAAACAAATTTTCCTAATCTTTCTGTTCAAGCGCCATCTAC” yielded a binding signal (RPM ratio (pull-down/input)) of 0.281.
“GATGATTGTTCTCCCAGCTGATGAATTACCAGAGTCGAGTAAACAAATTTTCCTAATCTTTCTGTTCAAGCGCCATCTAC” showed a binding signal (RPM ratio (pull-down/input)) of 0.23.
“GATGATTGTTCTCCCAGCTGATGAATTCGTTGGATCGAGTAAACAAATTTTCCTAATCTTTCTGTTCAAGCGCCATCTAC” showed a binding signal (RPM ratio (pull-down/input)) of 0.659.
In the case of “GATGATTGTTCTCCCAGCTGATGAATTGAGCGGCTCGAGTAAACAAATTTTCCTAATCTTTCTGTTCAAGCGCCATCTAC”, the binding signal (RPM ratio (pull-down/input)) is reported as 0.486.
Work on “GATGATTGTTCTCCCAGCTGATGAATTTTCCATGTCGAGTAAACAAATTTTCCTAATCTTTCTGTTCAAGCGCCATCTAC” yielded a binding signal (RPM ratio (pull-down/input)) of 0.215.
“GATGATTGTTCTCCCAGCTGATGAATTCTATGCTTCGAGTAAACAAATTTTCCTAATCTTTCTGTTCAAGCGCCATCTAC” gave a binding signal (RPM ratio (pull-down/input)) of 0.793.
Sequence “GATGATTGTTCTCCCAGCTGATGAATTCCCTTAATCGAGTAAACAAATTTTCCTAATCTTTCTGTTCAAGCGCCATCTAC” has a binding signal (RPM ratio (pull-down/input)) of 0.224.
“GATGATTGTTCTCCCAGCTGATGAATTTTGGGCTTCGAGTAAACAAATTTTCCTAATCTTTCTGTTCAAGCGCCATCTAC” was tested, and the binding signal (RPM ratio (pull-down/input)) was 0.396.
“GATGATTGTTCTCCCAGCTGATGAATTGTGCACTTCGAGTAAACAAATTTTCCTAATCTTTCTGTTCAAGCGCCATCTAC” gave a binding signal (RPM ratio (pull-down/input)) of 2.32.
“GATGATTGTTCTCCCAGCTGATGAATTTAACAGATCGAGTAAACAAATTTTCCTAATCTTTCTGTTCAAGCGCCATCTAC” gave a binding signal (RPM ratio (pull-down/input)) of 0.216.
Sequence “GATGATTGTTCTCCCAGCTGATGAATTGTCCTTATCGAGTAAACAAATTTTCCTAATCTTTCTGTTCAAGCGCCATCTAC” has a binding signal (RPM ratio (pull-down/input)) of 0.451.
Work on “GATGATTGTTCTCCCAGCTGATGAATTTGGGTGTTCGAGTAAACAAATTTTCCTAATCTTTCTGTTCAAGCGCCATCTAC” yielded a binding signal (RPM ratio (pull-down/input)) of 1.11.
With “GATGATTGTTCTCCCAGCTGATGAATTCGCTACATCGAGTAAACAAATTTTCCTAATCTTTCTGTTCAAGCGCCATCTAC” the binding signal (RPM ratio (pull-down/input)) was 0.511.
In the case of “GATGATTGTTCTCCCAGCTGATGAATTCGCTTCATCGAGTAAACAAATTTTCCTAATCTTTCTGTTCAAGCGCCATCTAC”, the binding signal (RPM ratio (pull-down/input)) is reported as 0.501.
Sequence “GATGATTGTTCTCCCAGCTGATGAATTAGGGTTATCGAGTAAACAAATTTTCCTAATCTTTCTGTTCAAGCGCCATCTAC” has a binding signal (RPM ratio (pull-down/input)) of 0.973.
“GATGATTGTTCTCCCAGCTGATGAATTAGCGGGATCGAGTAAACAAATTTTCCTAATCTTTCTGTTCAAGCGCCATCTAC” gave a binding signal (RPM ratio (pull-down/input)) of 0.308.
“GATGATTGTTCTCCCAGCTGATGAATTAGAACTCTCGAGTAAACAAATTTTCCTAATCTTTCTGTTCAAGCGCCATCTAC” gave a binding signal (RPM ratio (pull-down/input)) of 0.38.
Work on “GATGATTGTTCTCCCAGCTGATGAATTAGAACTTTCGAGTAAACAAATTTTCCTAATCTTTCTGTTCAAGCGCCATCTAC” yielded a binding signal (RPM ratio (pull-down/input)) of 0.321.
“GATGATTGTTCTCCCAGCTGATGAATTGTAAAGTTCGAGTAAACAAATTTTCCTAATCTTTCTGTTCAAGCGCCATCTAC” showed a binding signal (RPM ratio (pull-down/input)) of 0.279.
For “GATGATTGTTCTCCCAGCTGATGAATTCATGTCGTCGAGTAAACAAATTTTCCTAATCTTTCTGTTCAAGCGCCATCTAC”, the binding signal (RPM ratio (pull-down/input)) was 0.863.
For “GATGATTGTTCTCCCAGCTGATGAATTGCCCCGATCGAGTAAACAAATTTTCCTAATCTTTCTGTTCAAGCGCCATCTAC”, the binding signal (RPM ratio (pull-down/input)) was 0.331.
For “GATGATTGTTCTCCCAGCTGATGAATTTTCGGTATCGAGTAAACAAATTTTCCTAATCTTTCTGTTCAAGCGCCATCTAC”, the binding signal (RPM ratio (pull-down/input)) was 0.454.
With “GATGATTGTTCTCCCAGCTGATGAATTTATTCGGTCGAGTAAACAAATTTTCCTAATCTTTCTGTTCAAGCGCCATCTAC” the binding signal (RPM ratio (pull-down/input)) was 0.745.
“GATGATTGTTCTCCCAGCTGATGAATTGGTGACATCGAGTAAACAAATTTTCCTAATCTTTCTGTTCAAGCGCCATCTAC” showed a binding signal (RPM ratio (pull-down/input)) of 0.812.
In the case of “GATGATTGTTCTCCCAGCTGATGAATTGATCAGTTCGAGTAAACAAATTTTCCTAATCTTTCTGTTCAAGCGCCATCTAC”, the binding signal (RPM ratio (pull-down/input)) is reported as 0.331.
“GATGATTGTTCTCCCAGCTGATGAATTATGATGTTCGAGTAAACAAATTTTCCTAATCTTTCTGTTCAAGCGCCATCTAC” gave a binding signal (RPM ratio (pull-down/input)) of 3.29.
For “GATGATTGTTCTCCCAGCTGATGAATTAGTGCTTTCGAGTAAACAAATTTTCCTAATCTTTCTGTTCAAGCGCCATCTAC”, the binding signal (RPM ratio (pull-down/input)) was 1.23.
“GATGATTGTTCTCCCAGCTGATGAATTGAGATGCTCGAGTAAACAAATTTTCCTAATCTTTCTGTTCAAGCGCCATCTAC” gave a binding signal (RPM ratio (pull-down/input)) of 0.752.
“GATGATTGTTCTCCCAGCTGATGAATTATGATAATCGAGTAAACAAATTTTCCTAATCTTTCTGTTCAAGCGCCATCTAC” gave a binding signal (RPM ratio (pull-down/input)) of 0.653.
In the case of “GATGATTGTTCTCCCAGCTGATGAATTGTGTTATTCGAGTAAACAAATTTTCCTAATCTTTCTGTTCAAGCGCCATCTAC”, the binding signal (RPM ratio (pull-down/input)) is reported as 7.88.
For “GATGATTGTTCTCCCAGCTGATGAATTGATAACATCGAGTAAACAAATTTTCCTAATCTTTCTGTTCAAGCGCCATCTAC”, the binding signal (RPM ratio (pull-down/input)) was 1.32.
“GATGATTGTTCTCCCAGCTGATGAATTTGTTAGGTCGAGTAAACAAATTTTCCTAATCTTTCTGTTCAAGCGCCATCTAC” gave a binding signal (RPM ratio (pull-down/input)) of 5.73.
“GATGATTGTTCTCCCAGCTGATGAATTAGACGCCTCGAGTAAACAAATTTTCCTAATCTTTCTGTTCAAGCGCCATCTAC” was tested, and the binding signal (RPM ratio (pull-down/input)) was 0.663.
With “GATGATTGTTCTCCCAGCTGATGAATTCGGCTATTCGAGTAAACAAATTTTCCTAATCTTTCTGTTCAAGCGCCATCTAC” the binding signal (RPM ratio (pull-down/input)) was 1.91.
“GATGATTGTTCTCCCAGCTGATGAATTGGAGTCGTCGAGTAAACAAATTTTCCTAATCTTTCTGTTCAAGCGCCATCTAC” gave a binding signal (RPM ratio (pull-down/input)) of 0.445.
Sequence “GATGATTGTTCTCCCAGCTGATGAATTGGGGGTATCGAGTAAACAAATTTTCCTAATCTTTCTGTTCAAGCGCCATCTAC” has a binding signal (RPM ratio (pull-down/input)) of 0.977.
“GATGATTGTTCTCCCAGCTGATGAATTACCTAAGTCGAGTAAACAAATTTTCCTAATCTTTCTGTTCAAGCGCCATCTAC” was tested, and the binding signal (RPM ratio (pull-down/input)) was 0.236.
“GATGATTGTTCTCCCAGCTGATGAATTGATACAATCGAGTAAACAAATTTTCCTAATCTTTCTGTTCAAGCGCCATCTAC” showed a binding signal (RPM ratio (pull-down/input)) of 2.15.
With “GATGATTGTTCTCCCAGCTGATGAATTGATATCTTCGAGTAAACAAATTTTCCTAATCTTTCTGTTCAAGCGCCATCTAC” the binding signal (RPM ratio (pull-down/input)) was 0.704.
“GATGATTGTTCTCCCAGCTGATGAATTCCAGCGGTCGAGTAAACAAATTTTCCTAATCTTTCTGTTCAAGCGCCATCTAC” gave a binding signal (RPM ratio (pull-down/input)) of 0.313.
